# Measurements published in the supplement of paper PMC12423691.
# This is one part of the list. Binding of human transcription factors and regulators to the viral nucleoprotein by AlphaScreen, crude cell-free proteins, amounts not normalised, one pass. Fold of the Venus control; higher = more signal. No active / inactive call. Single-pass screen; sequences are the whole Swiss-Prot entries looked up by name.
# B1: ELF1, P32519 (protein)
# chain: MAAVVQQNDLVFEFASNVMEDERQLGDPAIFPAVIVEHVPGADILNSYAGLACVEEPNDMITESSLDVAEEEIIDDDDDDITLTVEASCHDGDETIETIEAAEALLNMDSPGPMLDEKRINNNIFSSPEDDMVVAPVTHVSVTLDGIPEVMETQQVQEKYADSPGASSPEQPKRKKGRKTKPPRPDSPATTPNISVKKKNKDGKGNTIYLWEFLLALLQDKATCPKYIKWTQREKGIFKLVDSKAVSRLWGKHKNKPDMNYETMGRALRYYYQRGILAKVEGQRLVYQFKEMPKDLIYINDEDPSSSIESSDPSLSSSATSNRNQTSRSRVSSSPGVKGGATTVLKPGNSKAAKPKDPVEVAQPSEVLRTVQPTQSPYPTQLFRTVHVVQPVQAVPEGEAARTSTMQDETLNSSVQSIRTIQAPTQVPVVVSPRNQQLHTVTLQTVPLTTVIASTDPSAGTGSQKFILQAIPSSQPMTVLKENVMLQSQKAGSPPSIVLGPAQVQQVLTSNVQTICNGTVSVASSPSFSATAPVVTFSPRSSQLVAHPPGTVITSVIKTQETKTLTQEVEKKESEDHLKENTEKTEQQPQPYVMVVSSSNGFTSQVAMKQNELLEPNSF
# B2: SCMH1, Q96GD3 (protein)
# chain: MLVCYSVLACEILWDLPCSIMGSPLGHFTWDKYLKETCSVPAPVHCFKQSYTPPSNEFKISMKLEAQDPRNTTSTCIATVVGLTGARLRLRLDGSDNKNDFWRLVDSAEIQPIGNCEKNGGMLQPPLGFRLNASSWPMFLLKTLNGAEMAPIRIFHKEPPSPSHNFFKMGMKLEAVDRKNPHFICPATIGEVRGSEVLVTFDGWRGAFDYWCRFDSRDIFPVGWCSLTGDNLQPPGTKVVIPKNPYPASDVNTEKPSIHSSTKTVLEHQPGQRGRKPGKKRGRTPKTLISHPISAPSKTAEPLKFPKKRGPKPGSKRKPRTLLNPPPASPTTSTPEPDTSTVPQDAATIPSSAMQAPTVCIYLNKNGSTGPHLDKKKVQQLPDHFGPARASVVLQQAVQACIDCAYHQKTVFSFLKQGHGGEVISAVFDREQHTLNLPAVNSITYVLRFLEKLCHNLRSDNLFGNQPFTQTHLSLTAIEYSHSHDRYLPGETFVLGNSLARSLEPHSDSMDSASNPTNLVSTSQRHRPLLSSCGLPPSTASAVRRLCSRGVLKGSNERRDMESFWKLNRSPGSDRYLESRDASRLSGRDPSSWTVEDVMQFVREADPQLGPHADLFRKHEIDGKALLLLRSDMMMKYMGLKLGPALKLSYHIDRLKQGKF
# B3: NFX1, Q12986 (protein)
# chain: MAEAPPVSGTFKFNTDAAEFIPQEKKNSGLNCGTQRRLDSNRIGRRNYSSPPPCHLSRQVPYDEISAVHQHSYHPSGSKPKSQQTSFQSSPCNKSPKSHGLQNQPWQKLRNEKHHIRVKKAQSLAEQTSDTAGLESSTRSESGTDLREHSPSESEKEVVGADPRGAKPKKATQFVYSYGRGPKVKGKLKCEWSNRTTPKPEDAGPESTKPVGVFHPDSSEASSRKGVLDGYGARRNEQRRYPQKRPPWEVEGARPRPGRNPPKQEGHRHTNAGHRNNMGPIPKDDLNERPAKSTCDSENLAVINKSSRRVDQEKCTVRRQDPQVVSPFSRGKQNHVLKNVETHTGSLIEQLTTEKYECMVCCELVRVTAPVWSCQSCYHVFHLNCIKKWARSPASQADGQSGWRCPACQNVSAHVPNTYTCFCGKVKNPEWSRNEIPHSCGEVCRKKQPGQDCPHSCNLLCHPGPCPPCPAFMTKTCECGRTRHTVRCGQAVSVHCSNPCENILNCGQHQCAELCHGGQCQPCQIILNQVCYCGSTSRDVLCGTDVGKSDGFGDFSCLKICGKDLKCGNHTCSQVCHPQPCQQCPRLPQLVRCCPCGQTPLSQLLELGSSSRKTCMDPVPSCGKVCGKPLPCGSLDFIHTCEKLCHEGDCGPCSRTSVISCRCSFRTKELPCTSLKSEDATFMCDKRCNKKRLCGRHKCNEICCVDKEHKCPLICGRKLRCGLHRCEEPCHRGNCQTCWQASFDELTCHCGASVIYPPVPCGTRPPECTQTCARVHECDHPVYHSCHSEEKCPPCTFLTQKWCMGKHEFRSNIPCHLVDISCGLPCSATLPCGMHKCQRLCHKGECLVDEPCKQPCTTPRADCGHPCMAPCHTSSPCPVTACKAKVELQCECGRRKEMVICSEASSTYQRIAAISMASKITDMQLGGSVEISKLITKKEVHQARLECDEECSALERKKRLAEAFHISEDSDPFNIRSSGSKFSDSLKEDARKDLKFVSDVEKEMETLVEAVNKGKNSKKSHSFPPMNRDHRRIIHDLAQVYGLESVSYDSEPKRNVVVTAIRGKSVCPPTTLTGVLEREMQARPPPPIPHHRHQSDKNPGSSNLQKITKEPIIDYFDVQD
# Target: nucleoprotein N of Crimean-Congo hemorrhagic fever virus
# Experiment: AlphaScreen luminescence signal relative to Venus negative control (fold); higher = stronger binding to CCHFV N
# Method: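 AlphaScreen binding of cell-free made, FLAG-GST-tagged human transcription factors and regulators (crude translation products) to biotinylated N protein; signal as fold of the FLAG-GST-Venus control. One pass.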
row,Binder,AlphaScreen luminescence signal
1,B1,2.19
2,B2,3.67
3,B3,2.47
